Drawing on the RNAGym collection of RNA variant scans (doi:10.7554/elife.90254), this text covers self-cleavage for 112 variants.

The source gives no read counts; variants with many changes may rest on few reads.

B1: LINE1-mini (parent)
chain: GGCAGAGCUCAACACAGCGUGGCAAAGUGGCUGUGGCUAGACUGCC

Variants of B1 are the subject of this data set. In words: self-cleavage, relative activity (ratio to wild type); higher = more cleavage; in vitro, sequencing; the parent is a self-cleaving ribozyme.
In the case of GGCAGUGUUCAAAACAGCGUGGGAAAGGGGCUGUGGCUAGACUGCC, the self-cleavage was 0.52.
Under GGCAGUGCUCAACACAGCGUCGCAAAGUGGCUGUGACUACACUGCC stands 0.28; under GGCAGUGCUCAACACAGCUUGGCAAAUUGGCCGUGGCUAGACUGCC, 0.02.
Under GGCAGUGCUCAACACAGCAUGGCACAGUGGCUGUGGCUAGACUGCC stands 0.32; under GGCAGUGCUCAUCACAGCGUGGCAAAGUGGCUGUGGCCAGACUGCC, 0.32; under GGCAGUGCUCGACCCAGCGUGGCAAAGUGUCUGUGGCUAGACUGCC, 0.03.
To GGCAGUGCUCAACACAGCGUGGCAAAGUGGUUGUGGCUAGACUGCA belongs 0.14.
Regarding GGCAGUGCUCUACCCAGCGUGGUAAGGUGGCUGUGGCUAGACUGCC, the self-cleavage amounted to 0.02.
Under GGCAGUGCUCAACACAGCGUGGCUACGUGGCUGUGGCUAGACUGCC stands 0.97; under GGCAGUGUUCAACACAGAGUGGCAAAGUGGCUGUGGCUAGACUACC, 0.09.
For GGCAGUUCUCAACACAGCGUGGCAAAGUGGCUGUGGCUAGACUGUC, the self-cleavage is 0.05.
Consider GGCAGUGCUCAACACAGGAUGGUAAAGUGGAUGUCGCUAUACUGCG, for which the self-cleavage stood at 0.01.
Under GGCAGUGCUCAACACAGCGUGACAAAUUGGCUGUCGCUAAACUGCC stands 0.41; under GGCAGUGCUCAACACACCGUGUCAAAGUGGCUGUGGCUAGAAUGCC, 0.89; under GGCAGUGCUCAACACAGCGUGGCAAAGUGGCUGUGGCUAGAUUGCA, 0.03.
Under GGCAGUGCUCACCACAGCGUGCCAAAGUGGCUGUGGCUAGACUGCC stands 0.02; under GGCAGUGCUCAACACGGCGAGGCAAAGUGGCUGUGGCUAGACUGCC, 0.44.
Under GGCAGUGCUCAACACAGCGUUGCAAAAUGGCUGUGGCUAGACUGCC stands 0.16.
Regarding GGCAGUGCUGAAUACAGCGUGGCAGUGUGGCAGUGGCUAGACUGCC, the self-cleavage is 0.01.
Under GGCAGUGCUCAACACAGCGUGGCAGAGUAGCUGUGGCUCGACUGCC stands 0.03; under GGCAGUGCUCAAGACUGCGGGGCGAAGUGGCUGUGGCUAUACUGCU, 0.07.
To GGCAGUGCUCAACACCGAGAGGCAAAGUGUCUGUGGCUAGACUGCC belongs 0.08.
On to GGCAGUGCUCAAAACAGUGUGGCAAAGUGGCUGUGGCGAGACUGCC, for which the self-cleavage came out at 0.03.
Under GGCAGUGCUCAACACCGCGUGGCAAAAUGGCUGUGGCUAGAGUGCA stands 0.1; under GGCAGUGCUCAAUACAGCGUGGCAAAGUGGGUGUGGCUAGACUGCC, 0.06.
Under GGCAGUGGUCACAACAGCGUGGCAAAGUGGCUGUGGCUAGACUGCC stands 0.01.
To GGCAGUGCUCUACACAGCGUGGCAAAUUGACUGUGGCUAGACUGCC belongs 0.56; to GGCAGUGCUCAACUCAGCCUGGCAAAGUGGCUGUGUCUAGACUGCC, 0.14; to GGCAGUGCUCAACACAGCGUGGGAAAGUGGCUGUGGCGAUACUGCC, 0.03.
As for GGCAGUGCUCAACACAGGGUGCCAAAGUGGCUGUGGCUAGACUGCC, the self-cleavage is 0.07.
To GGCAGUGCUCAACACGGCGUGGCAAAGUGGCUGUGGCCAGACUGCC belongs 0.1; to GGCAGUGCUCACCACAGCGUGGCAAAGUGGCUGUGGCUACACUGCC, 0.01.
To GGCAGUGCUCUACACAGCGUGGCAAAGUGGCUGUGGCUAGUCUGCC belongs 0.05; to GGCAGUGAUCAACACAGCGUGGCAAAAUGGCUGUGGCUAGACUGCC, 0.26; to GGCAGUGGUCAACAGAGUGUGGCAAAGUGGCUGUGGCUAGACUGCC, 0.01.
Under GGCAGUGCUCAACGCAGCGUGGCAAAGUGUCUGUGGCUAGACUGCC stands 0.42; under GGCAGUUCUCAACACAGCGUGGCAAAGUGGUUGAGGCUAGACUGCC, 0.02.
In the case of GGCAGUGCUCAACACAGCGUGGCAAGGUAGCUGUGGCUAGACUGCC, the self-cleavage turned out to be 0.4.
As for GGCAGUGCUCAACACAGCGUGGGAAAGUGGCUGUGGCUAGACUUCC, the self-cleavage amounted to 0.11.
To GGCAGUGCUAAACAUAGGGUGGCCAAGUGGCUGGGGCUAGACUGCC belongs 0.03; to GGCAGUGCUCAAGACAGCGUGCCAAAGUGGCUAUGGCUAGAUUUCC, 0.07.
To GGCAGUGCUCACCACAGCGUGGCAAAGUGGCUGUGGCUAGUCAGCC belongs 0.03; to GGCAGUGCUCAACACAGCGUGGCAAAGUGGCUGUGGCUUGACUCCC, 0.31; to GGCAGUUCUUAACAUAGCGUGGCAAAGUGGCUGUGGCUAGACUGCC, 0.02.
Under GGCAGUGCUCAACACAGCGUUGCAAAGUGGCUGUGGCUAUACUGCC stands 0.39.
Consider GGCAGUUGUUAACACAGCGUGCCAAAGUGGCGGUGGCUACACUGCC, for which the self-cleavage was 0.02.
To GGCAGUGGUCAACACAGCGUGGCAAAGUAGCUGUGGCUAGACUGAC belongs 0.03.
Under GGCAGUUCUCAACACAGCGUGGCAAAGUCGCUGUGGCUAGCCUGCC stands 0.15; under GGCAGUGCUUAACACAGCGUGGCAAAGUGGCUGUGGCAAGACUGCC, 0.05; under GGCAGUGGUCAACAUACCGUGGCAAAGUGGCUGUGGCUAGACAGCC, 0.06.
Under GGCAGUGCUUAACACACCGUGGCAAAGUGGCUGUGGCUAGACUGCC stands 0.1; under GGCAGUGCUCAACACAGCCUGCCAAAGUGGCUCUAGCUAGACUGCC, 0.07; under GGCAGUGCUGAAGACAGCGUCGCAAAGUGGCUGUGGUUAGACUGCC, 0.01.
As for GGCAGUGCUCAAUACAGCGUGGCAAAGUGGCUGUGGCUAGACCGCC, the self-cleavage amounted to 0.19.
For GGCAGUGCUCAUCACGGCGUGGGAAAGUGGCUGUGGCUAGACUGCC, the self-cleavage amounted to 0.14.
For GGCAGUGCUCAACACAUCGUGUGAAAGUGGCUGUGGCUAGACUGCC, the self-cleavage came out at 0.18.
Under GGCAGUGCUCAACACAGCGUGGCAAAGUGGUUAUGACUAGACUGCC stands 0.2; under GGCAGUACUCAACACAGCAUGGCAAAGUGGCUGUGGCUAGACUGCC, 0.18.
To GGCAGUGCUCGAUACAGCGUGGCAAAGUGGCUAUGGCUAGACUGCC belongs 0.04.
To GGCAGUCCCCAACACAGCGUGGCAAAGUGGCUGUGGCUAGACUGCC belongs 0.04; to GGCAGUGCUCAACACUGCGUGGCAAAGUGGAUGUGGCGAGACUGCC, 0.37.
As for GGCAGUGCUCAACACACCGUAGCUAAGUGGCUGUGGCUAGACUGCC, the self-cleavage came to 0.45.
GGCAGUGCUCAACAGAGCGUGGCAAAGUCGCUGUGGCUUCCCUGCC: the self-cleavage is 0.01.
To GGCAGUGCUCAGCACAGCGUGGCAAAGUGGCUGUGGCUAGAUAGCC belongs 0; to GGCAGUGCUAAACACAGCGUGGCAAAGUCGCAGUGGCUAGACUGUC, 0.03; to GGCAGUUCUCAACACAGCGUGGCGAAGUGGCUGUGGCUAGACUGCC, 0.07.
To GGCAGUGUUCAUCACAGCAUGGCAAAGUGGCUGUGGCUAGACUGCC belongs 0.36.
Under GGCAGUUCUCAACACAGAGUGGCAAAGUCGCAGUGGCUAGACUGCG stands 0.03.
On to GGCAGUUCUCAACACACCGUGGCAACGCGGCCGUGGGUAGACUGCC, for which the self-cleavage is 0.01.
Under GGCAGUGGUCAACACAGCGUGGCAAAGUGGCUGUGGCUAGACUGCA stands 0.07; under GGCAGUGCUAAACACAGCGUAGCAAAGUGGCUGUGGCUAGACUGCA, 0.49; under GGCAGUGCUCAACACAGCGUGGCAAAGUGGCUGUGGCUCGACAGCC, 0.04.
As for GGCAGUGCUCUACACAGCGUGGCAAUGUGGCUCUGGCUAGGCUGCC, the self-cleavage was 0.04.
To GGCAGUGCUCAAUACAGCGUGGCAAAGUGGCUGAGGCUAGACUGCC belongs 0.11; to GGCAGUGCUCAAGACAGCGUGGCAAAGUGGUUGUGGCUAGACUUCC, 0.01; to GGCAGUGCUCAACACAGCAUGGCAAAGUGGAUGUGGCUAGACUUCC, 0.1.
To GGCAGUACUCAACACAGCUUGGCACAGUGGCUGUGGCUACACUGCC belongs 0.06; to GGCAGUGCUGAACACAGCGUGGCAAAGUUGCUGUGGCUAGACGUCC, 0.02.
To GGCAGUGCUCAACACAGCGUGGCAAAGUGGCUGUGGCUAGUCGGCA belongs 0.91; to GGCAGUGUUCCACACAGCGUGGCAAAGUGGCUGUGGCUAGACUGCC, 0.04; to GGCAGUGCUCAACACAGGGUGGCUGAGUGGCUGUGGCUAGACUGCC, 0.15.
For GGCAGUGCUGAACACAGCGUGGCAAAAUGGCUGUGGCUAAAGUGCC, the self-cleavage was determined as 0.
On to GGCAGUGAUCAACACAGCGUUGCAAAGUUGCUGUGGCUAGACUACC, for which the self-cleavage was 0.2.
To GGCAGUGCUCAACCCAGCGUGGCAAAGUGGCUGAGGCUAGACUGCC belongs 0.01; to GGCAGUGCUCAACACAGCGUUGCAAAGUGUCUGCGGCUAGACAGCC, 0.05.
To GGCAGUGCUCAACAAAGCGUGGCACAGUGGCUGUGGCUGGACUGCC belongs 0.05; to GGCAGUGCUGAACACAGCGUGGCGAAGUGGCUCUGUCUAGACUGCC, 0.02; to GGCAGUGCUCAUUAGAGCGUGGCAAAGUGGCUGUGGCUAGACUGCC, 0.06.
To GGCAGUGCUCACCACAGCGUGGCAAAGUCGCUGUGGCUAGACUGCC belongs 0; to GGCAGUGCUCAACACAGUGUGGCAAGGUGGAUGUGGCUAAACUGCC, 0.01; to GGCAGUGCUCAACACAGCGUGCCAAAGAGGCUGUGGCUAGACUGUC, 0.92.
Regarding GGCAGUGCUCGACACAGAGUGGCCAAGUGGCUGUGGCUAGACUGCC, the self-cleavage amounted to 0.01.
Under GGCAGUGCUCAAAACAGCGUGGCAAAGUCGCGGUGGCUAGACUGCC stands 0.05.
Under GGCAGUACCCAACACAGAGUGGCAAAGUGGCUGUGGCUAGACUGCC stands 0.04; under GGCAGUGCUGAACUCAGCGUGGCAAAGUGGCUGUUGCUAGACUGCC, 0.04; under GGCAGUGUUCAACACAGCGUGGCAAAGUGGCUGUGGCUAAACUGCC, 0.03.
Under GGCAGUGCUCAACACAGCGUGGCAAUGUGGCUGUGGCUAGACUGCA stands 0.82; under GGCAGUGCUCAACACAGCGUGGUAGAGUGGCUGUGGCUAGACUGCG, 1.57.
Take GGCAGUGCUUAACACAGCAAGGCAAAGUGGCUGUGGCAAGACAGCC: the self-cleavage came to 0.
Under GGCAGUGCUCAACACAGCGUGGCAUAGUGGCUGUGAUAAGACUGCC stands 0.21; under GGCAGUGCUCAACACAACGUGGCUAAGCGGCUGUGGCUCGACUGCC, 0.07.
To GGCAGUGCUCAAGACAGCGUGGCAAAGUGGCUGUGGCUAGACUGCU belongs 0.13.
With GGCAGUGCUCAAAACAGCGUGGUAAAGUGGCCGUGGCUAGACUGAC, the self-cleavage was 0.05.
To GGCAGUGCUCAACGCAGCGUGGCAAAGUGGCAGUGGCUAUACUGCC belongs 0.1; to GGCAGUGUUCAACACAGCGUGGCAAAGUGGCUGUGUCUAGACUGCC, 0.68; to GGCAGUGCUCAACACAGCGUGGCAAAGUGGCUGUGGCUAGGCUGCA, 2.77.
Under GGCAGUGCUCAACAAAGGGAGGCAAAGUGGCUGUGGCUAGACUGCC stands 0.25; under GGCAGUGCUCUACACCGCGUGGGAAAGUGGCUGUGGCUAGACUGCC, 0.01; under GGCAGUGUUCAACACAGCGUGGCAAAGUCGCUGUGGCUAGACUGCG, 0.09.
To GGCAGUGCUCAACACAGCGUGGCAAAGUGGCUGUGGCUUGACCGCC belongs 0.14; to GGCAGUGCUCAACACCGCGUGGCAAAGUGGCUUUGGCUAGACUGCC, 0.13.
As to GGCAGUGCUCAACACAGCGUGGCAUAGUGGCUGUCGCUAGACUGCC, the self-cleavage was determined as 0.04.
